# Laboratory results: PubChem BioAssay AID686978 (National Center for Advancing Translational Sciences (NCATS), 2013)
# Values joined by “and” are separate entries in the source; they are usually repeats but may differ in a detail not shown here. Equal values may be shown once. In all, about 420,000 compounds went through this assay and about 64,000 (15%) were called active. The inconclusive results got no clear call from the source; some entries with a clear call stand among them for comparison. The call rests on the fitted dose curve; in most records, active means well fitted inhibition curve with a large enough effect; inconclusive means small, poorly fitted or top-dose-only effect; inactive means flat fitted curve, though single readings scatter. Potencies beside an inconclusive call are fits to weak or partial responses and may not hold up.
# Assay: qHTS for Inhibitors of human tyrosyl-DNA phosphodiesterase 1 (TDP1): qHTS in cells in absence of CPT; further: nearly all actives have a fitted effect of over 55% in size
# Conditions: DT40 Tdp1-/- hTDP1 cells, no CPT, ATP luminescence, 48 h; activity change, negative = growth inhibition: at 46.2 µM (top of the series)
# In short: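 Luminescent ATP content (CellTiter-Glo) served as the growth readout. Knockout chicken DT40 cells expressing human TDP1 were exposed to compounds without camptothecin for a minimum 48 hr at 37 °C.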
# On the % scale 0 is the no-effect control and ±100 the full control effect; potency means the concentration at half of the fitted maximal effect; tags describe the fitted curve by direction and shape.
SMILES,Potency,"activity change, negative = growth inhibition"
O=C(COc1ccccc1Cl)Nc1nc(-c2cccs2)cs1,"inconclusive: 32.6 µM [inhibitor, partial curve, poor fit]",–
O=C(c1cccs1)N1CCN(C2CCCCC2)CC1,–,inactive: 2.3%
COc1ccc2c(c1)CCc1sc(NC(=O)c3cccc(Br)c3)nc1-2,"inconclusive: 18.4 µM [inhibitor, single point]",–
CCCCN(CC)Cc1ccc(CNC(=O)Nc2ccc(OCC)cc2)o1,"inconclusive: 35.5 µM [inhibitor, single point]",–
COc1ccccc1NC(=O)CSC1=Nc2ccccc2C2=NC(Cc3ccccc3)C(=O)N12 (stereo not given),"inconclusive: 18.4 µM [inhibitor, single point]",–
Oc1ccc(/C=N/Nc2ncc(Br)cn2)c(O)c1,active: 7.31 µM,–
CC12CC(NC(=O)N1CCc1ccccc1)c1ccccc1O2 (stereo not given),"inconclusive: 11.6 µM [inhibitor, partial curve, poor fit]",–
Fc1ccccc1N1CC(c2ccccc2)C(c2cccs2)=N1 (stereo not given),"inconclusive: 23.1 µM [inhibitor, single point]",–
CCOc1ccc(S(=O)(=O)N2CCN(c3cccc(C(F)(F)F)c3)CC2)cc1OCC,"inconclusive: 25.9 µM [inhibitor, single point]",–
COc1ccc(C(=O)NNC(=O)OC(C)(C)C)cc1,–,inactive: 33.4%
CC1(C)Cc2ccccc2C(c2cc3ccccc3oc2=O)=N1,"inconclusive: 29.1 µM [inhibitor, single point]",–
COc1cn(-c2ccccc2)nc1C(=O)Nc1ccc(C)cc1Cl,"inconclusive: 20.6 µM [inhibitor, single point]",–
O=C(COc1ccccc1)Nc1ccc(F)cc1,–,inconclusive: -39% [inhibitor]
Cc1cc(C)c(S(=O)(=O)NCC(c2ccco2)N2CCOCC2)c(C)c1 (stereo not given),"inconclusive: 20.6 µM [inhibitor, single point]",–
Cc1ccccc1CN(C)C(=O)COC(=O)c1ccc2[nH]c(C)c(C)c2c1,"inconclusive: 29.1 µM [inhibitor, single point]",–
CCOC(=O)/C=C/[C@H]1CC(c2ccccc2)(c2ccccc2)CO1,"inconclusive: 18.4 µM [inhibitor, single point]",–
O=C(NC(=S)Nc1nc(-c2ccc(Cl)cc2)cs1)c1cccs1,"inconclusive: 18.4 µM [inhibitor, single point]",–
CCc1nc2c(cnn2-c2ccc(C)cc2)c(=O)n1Cc1ccccc1,"inconclusive: 20.6 µM [inhibitor, single point]",–
CCc1ccc(NC(=O)Cn2c(=O)n(CCCCC(=O)NCc3ccccc3Cl)c(=O)c3ccccc32)cc1,"inconclusive: 14.6 µM [inhibitor, single point]",–
O=c1[nH][nH]c(=O)c2cc([N+](=O)[O-])ccc12,"inactive and inconclusive: 731 nM [inhibitor, full curve, poor fit]",–
CC1=C(C(N)=O)C(c2ccc(F)cc2)n2nc(CCCO)nc2N1 (stereo not given),–,inactive: 4.07%
COc1ccc(NC(=O)CSc2nc3ccccc3nc2N2CCCC2)c(OC)c1,"inconclusive: 29.1 µM [inhibitor, single point]",–
COc1ccc(OC)c(S(=O)(=O)Nc2cccnc2)c1,–,inactive: -26.5%
CCc1cc2c(=O)[nH]c(CC(N)=O)nc2s1,–,inactive: -14.3%
COc1ccc(-c2ccc(Nc3ccc(C(=O)N4CCOCC4)cc3)nn2)cc1OC,"inconclusive: 18.4 µM [inhibitor, single point]",–

SMILES,Potency,"activity change, negative = growth inhibition"
Cc1ccc(-n2c(C)cc(/C=N/NC(=O)Cn3c4ccccc4c(=O)c4ccccc43)c2C)cc1,"inconclusive: 18.4 µM [inhibitor, single point]",–
O=C(Nc1cccc(S(=O)(=O)N2CCCCC2)c1)c1ccc2c(c1)OCO2,active: 16.4 µM,–
CCOc1cc(OCC)cc(C(=O)Nc2cccc(-c3nc4ccccc4[nH]3)c2)c1,active: 6.51 µM,–
CC(C)(C)C(c1nc2ccccc2[nH]1)n1c(-c2cccc(S(C)(=O)=O)c2)nc2ccccc21 (stereo not given),active: 13 µM,–
COc1ccccc1-c1nnc(C2CCN(C(=O)c3cccc(C)c3)CC2)o1,"inconclusive: 16.4 µM [inhibitor, single point]",–
CSc1cc(/C=N/O)c(SC)s1,"inconclusive: 2.06 µM [inhibitor, partial curve, poor fit]",–
O=C(NCc1ccccc1)C(=O)NCC(c1ccco1)S(=O)(=O)c1ccc(Cl)cc1 (stereo not given),active: 18.4 µM,–
COc1ccccc1CNC(=O)c1cccc(S(=O)(=O)N2CCN(C)CC2)c1,–,inactive: -4.18%
CC(C)NC(=O)C1(C)CN(S(C)(=O)=O)CC(=O)N1CCc1ccccc1F (stereo not given),–,inactive: -7.17%
COc1ccccc1C(=O)NCCNC(=O)c1ccco1,"inconclusive: 23.1 µM [inhibitor, partial curve]",–
O=C(Nc1nccs1)c1cc2sccc2n1Cc1ccc(Cl)cc1,–,inactive: -24.1%
CCCc1cc2nnc(SCC(=O)N(C)C3CCCCC3)n2c(N)n1,–,inactive: -12.5%
COc1ccc(Cl)cc1NC(=O)CC(=O)Nc1cc(Cl)ccc1OC,–,inactive: -28.9%
COc1cc(NC(=O)CN(C)S(=O)(=O)c2ccc(-c3ccc(=O)[nH]n3)s2)cc(OC)c1,–,inactive: 1.37%
COc1ccc(C(=O)NCc2ccon2)cc1OC1CCN(C(C)C)CC1,–,inactive: 21.7%
CSC1=NC(C)(C)C=C(/C=C/c2ccc(Cl)cc2)N1,active: 16.4 µM,–
Cc1ccc(Cn2c(=O)n(C)c(=O)c3sccc32)cc1,"inconclusive: 13 µM [inhibitor, single point]",–
CCC1(C)NC(=O)N(/N=C/c2ccc(C)s2)C1=O (stereo not given),–,inactive: 4.46%
CCCNC(=O)Nc1ccc(C(F)(F)F)cc1,–,inactive: -23.4%
OCC1(Cc2ccccc2)CCCN(Cc2c[nH]c3ccccc23)C1 (stereo not given),active: 18.4 µM,–
Cc1ccc(NC(=O)c2cc(N3CCOCC3)nc3ccccc23)cc1,"inconclusive: 29.1 µM [inhibitor, single point]",–
CCO[C@@H]1OC(C(=O)N2CCN(Cc3ccc4c(c3)OCO4)CC2)=C[C@H](c2cn(C(C)=O)c3ccccc23)[C@H]1CCCO,"inconclusive: 25.9 µM [inhibitor, single point]",–
CCC1CCCCN1Cc1ccc(OC)c(C)c1C (stereo not given),–,inactive: -1.69%
Cc1nn(C)cc1C(C)NCc1c(C(=O)N2CCCCCCC2)nc2ccc(Cl)cn12 (stereo not given),–,inactive: -22.6%
Cc1cc(OCc2cc(C(=O)NCCN3CCCCC3CO)no2)cc(C)c1Cl (stereo not given),"inconclusive: 18.4 µM [inhibitor, single point]",–

SMILES,Potency,"activity change, negative = growth inhibition"
Cc1ccc(C)c(-n2cc(CNCCCn3cccn3)c(-c3ccccc3)n2)c1,active: 20.6 µM,–
O=C(CCCN1C(=O)/C(=C\c2ccccc2)SC1=S)N1CCOCC1,"inconclusive: 25.9 µM [inhibitor, single point]",–
Cc1ccccc1N1CCN(C2CCCN(C(=O)CCC(=O)N(C)C)C2)CC1 (stereo not given),–,inactive: 5.93%
CCCCN(C)CCCNC(=O)C1CCN(S(=O)(=O)CC)CC1,–,inactive: 3.16%
N#Cc1nc(Cc2ccccc2)oc1N1CCN(c2cccc(Cl)c2)CC1,"inconclusive: 20 µM [inhibitor, partial curve]",–
Cc1c2cnn(CC(=O)N3CCN(c4ccccc4)CC3)c(=O)c2c(C)n1Cc1ccccc1Cl,–,inactive: 1.95%
CC1=C(C)C(=O)C(C(CCCCCC(=O)O)c2ccccc2)=C(C)C1=O (stereo not given),"inconclusive: 26.6 µM [inhibitor, single point]",–
Cc1scc(C(=O)NNC(=S)NC(C)c2ccccc2)c1C (stereo not given),active: 20.6 µM,–
COC(=O)c1ccc2nc(-c3ccc(OC)c(OC)c3)c(Cc3cccc(F)c3)n2c1,active: 13 µM,–
O=C(NCCN1CCN(c2cccc(Cl)c2)CC1)c1ccc(CSc2nc3ccncc3[nH]2)cc1,"inconclusive: 29.1 µM [inhibitor, single point]",–
Cc1ccccc1NCC(=O)Nc1cc(S(=O)(=O)N2CCCCC2)ccc1C,active: 20.6 µM,–
CCCCN(C)CCCNC(=O)CN1N=C(c2ccc(OC)cc2)CCC1=O,–,inactive: -10%
CC(=O)C1=C(c2ccccc2)N(C(C)=O)n2c(nnc2C2CCCCC2)S1,active: 4.61 µM,–
COc1ccc(-c2cc(C)no2)cc1S(=O)(=O)Nc1ccccc1,active: 9.2 µM,–
CC(=O)c1ccc(NC(=O)CCc2c(C)nc3c(c2C)c(=O)n(C)c(=O)n3C)cc1,"inconclusive: 1.03 µM [inhibitor, full curve, poor fit]",–
CCOc1cc(N2CCOCC2)c(OCC)cc1NC(=O)COC(=O)c1c(C)noc1C,"inconclusive: 18.4 µM [inhibitor, single point]",–
CCN(C1CCCCC1)S(=O)(=O)CCNC(=O)c1ccc(OC)cc1,"inconclusive: 29.1 µM [inhibitor, single point]",–
CCOC(=O)C1(CC2CC2)CCN(Cc2ccc3cccc(F)c3n2)CC1,active: 16.4 µM,–
CC1CCc2cc(F)ccc2N1C(=O)c1cc2nc(-c3ccco3)cc(C(F)(F)F)n2n1 (stereo not given),"inconclusive: 25.9 µM [inhibitor, single point]",–
O=[N+]([O-])c1ccc(SNc2ccccc2)c([N+](=O)[O-])c1,"inconclusive: 29.1 µM [inhibitor, single point]",–
Cc1noc(C)c1C(=O)N1CCC2(CCN(Cc3ccncc3)CC2)CC1,–,inactive: -14.5%
CCCN(CC(=O)Nc1ccccc1C)C(=O)COc1ccc2c(c1)CCC2,"inconclusive: 20.6 µM [inhibitor, single point]",–
O=C(NCC1CCCO1)c1ccc(NC(=O)C2C3C=CC(C3)C2C(=O)O)cc1 (stereo not given),–,inactive: -1.28%
COc1ccccc1CNC(=S)Nc1ccc(F)cc1,active: 5.17 µM,–
CN(C)S(=O)(=O)c1ccc(NC(=O)c2ccc(Br)o2)cc1,–,inactive: -10.3%
